Measured values taken from PubChem BioAssay AID720709 (National Center for Advancing Translational Sciences (NCATS), 2013).
Screen size: about 360,000 compounds; about 520 (0.14%) were called active. The inconclusive results got no clear call from the source; some entries with a clear call stand among them for comparison. Calls follow the shape of the dose curve; as a rule, active = well fitted inhibition curve with a large enough effect; inconclusive = small, poorly fitted or top-dose-only effect; inactive = no such curve, though single readings can be large or run the other way. Potencies of inconclusive entries are left out as doubtful fits.

Molecular target: Rap guanine nucleotide exchange factor 3 (Homo sapiens) (UniProt O95398)
Test: qHTS for Antagonist of cAMP-regulated guanine nucleotide exchange factor 3 (EPAC1): primary screen; also: nearly all actives have a fitted effect of over 50% in size;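 as to activity change, negative = inhibition: plate controls were vehicle for no effect and positive control for full effect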
Conditions: EPAC1 GEF assay, Rap1b-BODIPY-GDP exchange fluorescence; activity change, negative = inhibition: at 115 µM (top of the series)
Potency is read from the fitted curve at half-maximal effect; tags tell the direction and shape of the fitted curve.

UniProt O95398, sequence (O95398 whole entry, looked up): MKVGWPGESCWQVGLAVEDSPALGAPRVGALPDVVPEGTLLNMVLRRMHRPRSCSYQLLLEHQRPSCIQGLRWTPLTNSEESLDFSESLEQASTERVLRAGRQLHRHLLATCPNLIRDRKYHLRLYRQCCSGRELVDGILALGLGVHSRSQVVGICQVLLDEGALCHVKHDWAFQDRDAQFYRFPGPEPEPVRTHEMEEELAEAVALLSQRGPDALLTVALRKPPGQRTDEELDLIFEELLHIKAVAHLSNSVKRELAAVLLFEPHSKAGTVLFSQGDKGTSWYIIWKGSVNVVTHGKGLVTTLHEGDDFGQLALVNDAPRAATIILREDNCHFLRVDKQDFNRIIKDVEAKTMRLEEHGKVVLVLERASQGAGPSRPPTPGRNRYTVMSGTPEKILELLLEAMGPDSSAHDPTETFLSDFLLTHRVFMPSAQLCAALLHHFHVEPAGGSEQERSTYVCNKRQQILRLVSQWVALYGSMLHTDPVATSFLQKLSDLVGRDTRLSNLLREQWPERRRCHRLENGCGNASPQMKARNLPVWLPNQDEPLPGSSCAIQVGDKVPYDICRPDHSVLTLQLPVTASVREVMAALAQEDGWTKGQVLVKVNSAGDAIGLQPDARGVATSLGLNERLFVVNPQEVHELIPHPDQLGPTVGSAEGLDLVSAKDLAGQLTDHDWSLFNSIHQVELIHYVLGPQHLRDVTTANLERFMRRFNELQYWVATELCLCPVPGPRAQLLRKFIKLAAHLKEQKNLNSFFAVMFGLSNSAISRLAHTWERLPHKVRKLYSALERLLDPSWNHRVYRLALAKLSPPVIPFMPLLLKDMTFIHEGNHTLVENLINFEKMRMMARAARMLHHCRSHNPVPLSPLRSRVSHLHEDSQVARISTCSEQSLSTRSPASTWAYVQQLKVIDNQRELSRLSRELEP

Compound | Potency | activity change, negative = inhibition
COc1cc(OC)c2c(c1O)OC(c1ccccc1)CC2=O (stereo unspecified) | inconclusive [inhibitor, partial curve] | –
CN(C)C(CNC(=O)C1CCN(S(=O)(=O)c2ccccc2)CC1)c1ccccc1 (stereo unspecified) | inconclusive [inhibitor, partial curve] | –
Cc1cc(NS(=O)(=O)c2ccc(NC(=O)CNS(=O)(=O)c3ccccc3)cc2)nc(C)n1 | inconclusive [inhibitor, single point] | –
O=C(Cc1cnn(-c2ccccc2)c1)c1ccc(O)c(O)c1O | inconclusive [inhibitor, full curve] | –
O=C(Nc1cccc(C(F)(F)F)c1)c1cccc(NS(=O)(=O)c2ccc(O)c(C(=O)O)c2)c1 | inconclusive [inhibitor, partial curve] | –
Oc1ccc(NCc2ccc(OCc3ccccc3)cc2)cc1 | inconclusive [inhibitor, single point] | –
Cc1ccc(-c2nn(-c3ccccc3)cc2/C=C/C(=O)O)o1 | inconclusive [inhibitor, single point] | –
O=C(NCc1ccccc1)C(c1ccc(-c2ccccc2)cc1)N1CCN(C(=O)C2CCCO2)CC1 (stereo unspecified) | inconclusive [inhibitor, single point] | –
O=c1oc2c3c4c(cc2c(C(F)(F)F)c1CCN1CCOCC1)CCCN4CCC3 | – | inactive: 99.9%
O=c1c(Cc2c(F)cccc2Cl)c(O)ccn1CCCn1ccnc1 | inconclusive [inhibitor, single point] | –
CCOC(=O)C(=CNc1ccc(OC)cc1[N+](=O)[O-])C(=O)OCC | inconclusive [inhibitor, partial curve] | –
Cc1ccc(C(=O)N/C(=C/c2cccs2)C(=O)NCCc2c[nH]c3ccccc23)cc1 | inconclusive [inhibitor, single point] | –
Cc1ccccc1CN1C(=O)CSCC1(C)C(=O)NC(C)C (stereo unspecified) | – | inactive: -11.6%
CC1(C)CC(=O)C2=C(C1)Nc1ccccc1NC2c1ccc(F)cc1 (stereo unspecified) | inconclusive [inhibitor, single point] | –
O=C(O)c1cc(-c2ccc(-c3c(-c4ccc5c(c4)OCO5)noc3-c3ccsc3)cc2)nc2ccccc12 | inconclusive [inhibitor, single point] | –
COc1ccc(/C=N/NC(=O)c2ccc(NC(=O)c3cccc([N+](=O)[O-])c3)cc2)c(C(=O)O)c1OC | inconclusive [inhibitor, single point] | –
O=S(=O)(NCC1CCC(NS(=O)(=O)c2c(F)cccc2F)CC1)c1ccc2c(c1)OCCO2 (stereo unspecified) | – | inactive: -25.6%
Cc1ccc(-c2nn(C)c(=O)c3ccccc23)cc1CNC(=O)c1ccccc1 | inconclusive [inhibitor, single point] | –
O=C(c1ccccc1Cl)N(C(=O)c1ccccc1Cl)c1nccc(-c2cccs2)n1 | – | inactive: 22%
Cc1cc(C)cc(OCCCC(=O)O)c1 | inconclusive [inhibitor, full curve, poor fit] | –
O=C1/C(=C\c2cc(Cl)c(O)c(Cl)c2)SC(=S)N1Cc1ccccc1 | – | inactive: 270%
O=c1c2ccccc2sn1-c1ccc(Cl)cc1 | – | inactive: 0.969%

Compound | Potency | activity change, negative = inhibition
CCc1nnc(NS(=O)(=O)c2ccc(N=Cc3c(C)[nH]n(-c4ccc(C)c(C)c4)c3=O)cc2)s1 | inconclusive [inhibitor, single point] | –
COc1ccc(/C(O)=C/Sc2nnc(Cc3ccccc3)o2)cc1 | inconclusive [inhibitor, full curve, poor fit] | –
CCc1cccc(NC(=O)NC2CCCCC2)c1 | inconclusive [inhibitor, partial curve] | –
COc1ccc([N+](=O)[O-])cc1NS(=O)(=O)c1cccc(C(=O)OC2CCOC2=O)c1 (stereo unspecified) | inconclusive [inhibitor, single point] | –
Cc1ccc(S(=O)(=O)N2[C@@H](c3ccc(Cl)cc3)C(C(=O)O)=CC[C@H]2c2ccc(Cl)cc2)cc1 | inconclusive [inhibitor, single point] | –
COc1cccc(/C=N/Nc2nc(-c3cccnc3)nc3ccccc23)c1 | inconclusive [inhibitor, single point] | –
COc1ccc(-c2cn3ccc(C)cc3n2)cc1 | inconclusive [inhibitor, single point] | –
Cc1cc(C(=O)CSc2nncn2C)c(C)n1-c1ccccc1 | inconclusive [inhibitor, single point] | –
O=C(OCc1nnc(-c2ccccc2)o1)C1CCN(S(=O)(=O)c2cccs2)CC1 | inconclusive [inhibitor, single point] | –
CCN1/C(=C/C=C/c2oc3ccc4ccccc4c3[n+]2CC)Oc2ccc3ccccc3c21 | inconclusive [inhibitor, full curve] | –
COc1ccccc1CN1CC(C(=O)NCc2cc(F)ccc2C)CCC1=O (stereo unspecified) | inconclusive [inhibitor, full curve, poor fit] | –
CCCCN(C)Cc1c(C)[nH]c2c(ccc3ccccc32)c1=O | inconclusive [inhibitor, partial curve] | –
COC(=O)/C(=C/N(C)C)C(=O)N1CCN(c2ccc(Cl)c(Cl)c2)CC1 | inconclusive [inhibitor, single point] | –
COc1cc(Cn2c3ccc(NC(=O)CCc4ccc(O)cc4)cc3c(=O)n2C)ccc1F | – | inactive: -10.9%
COc1ccc(-c2csc(NC(=O)CSc3nc(SC)ns3)n2)cc1 | – | inactive: -9.98%
O=C(Nc1ccc(S(=O)(=O)Nc2nccs2)cc1)c1nn(-c2ccccc2)ccc1=O | inconclusive [inhibitor, partial curve] | –
O=C(NC1(C(F)(F)F)NC(=O)N(Cc2cccnc2)C1=O)c1ccc(F)cc1 (stereo unspecified) | inconclusive [inhibitor, full curve, poor fit] | –
Cc1ccc(CS(=O)(=O)c2ncc(Cl)c(C(=O)Nc3ccc(OC(F)F)cc3)n2)cc1 | inconclusive [inhibitor, partial curve] | –
N=C1CCC(=N)c2c1c(O)c1ccccc1c2O | inconclusive [inhibitor, single point] | –
CCC(=NN=C(CC)c1ccccc1O)c1ccccc1O | inconclusive [inhibitor, single point] | –
O=c1cc(C(F)(F)F)nc(SCc2cccc3ccccc23)[nH]1 | inconclusive [inhibitor, full curve, poor fit] | –
CCCCN(C)C(=O)c1nc2ccccn2c1CN1CCN(C/C=C/c2ccccc2)CC1 | – | inactive: -19.1%

Compound | Potency | activity change, negative = inhibition
CCc1nc2ccc(C(=O)N(C)Cc3ccco3)cn2c1N(C)CCCc1ccccc1 | – | inactive: -37.3%
O=c1c(Cl)c(N2CCOCC2)cnn1-c1ncc(C(F)(F)F)cc1Cl | – | inactive: 33.4%
CN=c1nc(-c2ccccc2)n(-c2ccccc2)s1 | – | inactive: -3.67%
COc1ccc(Cl)cc1NC(=O)C(C)N(C)Cc1ccc(C(F)(F)F)cc1 (stereo unspecified) | inconclusive [inhibitor, full curve, poor fit] | –
Cc1nc2c(OCc3ccc(C(F)(F)F)cc3)cccn2c1N(C)C(=O)CCC1CCCC1 | inconclusive [inhibitor, full curve, poor fit] | –
O=C1c2ccccc2C(c2nnnn2Cc2ccccc2)N1Cc1ccc(F)cc1 (stereo unspecified) | – | inactive: -5.05%
CCc1ccc(NC(=O)CC2S/C(=N/N=C3CCCCCC3)NC2=O)cc1 (stereo unspecified) | inconclusive [inhibitor, full curve] | –
OCCCNc1ncnc2sc(-c3ccccc3)cc12 | inconclusive [inhibitor, partial curve] | –
CN(C)S(=O)(=O)c1cccc(NC(=O)COC(=O)/C=C/c2ccc3c(c2)OCO3)c1 | inconclusive [inhibitor, partial curve] | –
COc1ccc(NC(=O)C2CCCN(S(=O)(=O)c3ccc4c(c3)oc(=O)n4C)C2)cc1OC (stereo unspecified) | – | inactive: -4.44%
COc1ccc(C(=O)NCc2nnc(SCC(=O)NC3CCCCC3)n2C)cc1 | – | inactive: -7.9%
CC(=O)n1cc(N(C(=O)CCl)c2ccc(Cl)cc2)c2ccccc21 | inconclusive [inhibitor, partial curve] | –
O=C(c1cccs1)N1CCN(Cc2ccncc2)CC1 | – | inactive: -19.6%
CN(CC(=O)Nc1ccccc1Sc1ccccc1)C1CCCCC1 | inconclusive [inhibitor, partial curve] | –
COc1ccc(C(=O)N/N=C(\C)c2ccc3c(c2)C2C=CCC2C(c2ccccc2)N3)cc1 (stereo unspecified) | inconclusive [inhibitor, partial curve, poor fit] | –
Cn1c(=O)oc2cc(S(=O)(=O)Nc3ccc(Cl)cc3)ccc21 | – | inactive: 8.27%
COc1ccc(Cl)cc1NC(=S)NCc1ccco1 | inconclusive [inhibitor, partial curve] | –
O=C(O)CNC(=O)c1ccc(NC(=O)/C(=C/c2ccccc2)NC(=O)c2ccccc2)cc1 | inconclusive [inhibitor, full curve, poor fit] | –
N#CC1=C(N)Oc2cc(N)ccc2C1c1ccccc1Cl (stereo unspecified) | inconclusive [inhibitor, single point] | –
O=S1(=O)CC(N2CCN(Cc3ccccc3F)CC2)CN1Cc1cn(Cc2ccc(C(F)(F)F)cc2)nn1 (stereo unspecified) | inconclusive [inhibitor, single point] | –
CCOC(=O)c1csc(NC(=O)CSc2nnnn2-c2ccc3c(c2)OCCO3)n1 | – | inactive: -18.8%
Cn1cc(/C=C/c2cc[n+](C)cc2)c2cc(Cl)ccc21 | – | inactive: -10.4%
